# No constants are given. Whether binding was seen depends on the method and setting. In cells and extracts the contact can be indirect. Some entries that bind do so weakly or less than the wild type. Tags and fused reporters may be left off the sequences shown.
# Sequences of proteins named here, by UniProt entry; tags and fusion partners are left off.
# UniProt Q9UL25: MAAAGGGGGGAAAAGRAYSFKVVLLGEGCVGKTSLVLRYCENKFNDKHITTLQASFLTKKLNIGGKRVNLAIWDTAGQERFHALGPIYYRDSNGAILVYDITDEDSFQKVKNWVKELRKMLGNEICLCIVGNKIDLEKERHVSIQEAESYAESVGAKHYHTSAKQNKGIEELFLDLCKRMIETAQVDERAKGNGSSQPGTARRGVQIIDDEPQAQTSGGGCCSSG
# UniProt P51149: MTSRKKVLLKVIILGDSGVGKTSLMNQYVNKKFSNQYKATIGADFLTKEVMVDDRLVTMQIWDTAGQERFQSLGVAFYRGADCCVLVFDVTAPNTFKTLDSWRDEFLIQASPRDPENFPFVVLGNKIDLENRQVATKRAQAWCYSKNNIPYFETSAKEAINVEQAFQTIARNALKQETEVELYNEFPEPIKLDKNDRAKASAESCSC
# UniProt P62491: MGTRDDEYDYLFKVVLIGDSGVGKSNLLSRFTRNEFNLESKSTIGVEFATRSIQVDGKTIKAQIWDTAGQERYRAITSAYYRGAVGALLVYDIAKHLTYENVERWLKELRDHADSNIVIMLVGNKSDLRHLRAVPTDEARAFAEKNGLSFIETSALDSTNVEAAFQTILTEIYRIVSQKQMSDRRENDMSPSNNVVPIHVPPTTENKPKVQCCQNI
# UniProt P20339: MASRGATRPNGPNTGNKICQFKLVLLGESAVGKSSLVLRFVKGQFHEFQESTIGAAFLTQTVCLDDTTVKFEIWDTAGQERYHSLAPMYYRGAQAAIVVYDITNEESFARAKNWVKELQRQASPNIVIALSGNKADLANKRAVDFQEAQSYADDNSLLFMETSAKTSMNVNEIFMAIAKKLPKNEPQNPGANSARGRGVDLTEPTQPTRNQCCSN
# T1: Flag-TBC1D31 (human) (UniProt Q96DN5)
# T1 sequence: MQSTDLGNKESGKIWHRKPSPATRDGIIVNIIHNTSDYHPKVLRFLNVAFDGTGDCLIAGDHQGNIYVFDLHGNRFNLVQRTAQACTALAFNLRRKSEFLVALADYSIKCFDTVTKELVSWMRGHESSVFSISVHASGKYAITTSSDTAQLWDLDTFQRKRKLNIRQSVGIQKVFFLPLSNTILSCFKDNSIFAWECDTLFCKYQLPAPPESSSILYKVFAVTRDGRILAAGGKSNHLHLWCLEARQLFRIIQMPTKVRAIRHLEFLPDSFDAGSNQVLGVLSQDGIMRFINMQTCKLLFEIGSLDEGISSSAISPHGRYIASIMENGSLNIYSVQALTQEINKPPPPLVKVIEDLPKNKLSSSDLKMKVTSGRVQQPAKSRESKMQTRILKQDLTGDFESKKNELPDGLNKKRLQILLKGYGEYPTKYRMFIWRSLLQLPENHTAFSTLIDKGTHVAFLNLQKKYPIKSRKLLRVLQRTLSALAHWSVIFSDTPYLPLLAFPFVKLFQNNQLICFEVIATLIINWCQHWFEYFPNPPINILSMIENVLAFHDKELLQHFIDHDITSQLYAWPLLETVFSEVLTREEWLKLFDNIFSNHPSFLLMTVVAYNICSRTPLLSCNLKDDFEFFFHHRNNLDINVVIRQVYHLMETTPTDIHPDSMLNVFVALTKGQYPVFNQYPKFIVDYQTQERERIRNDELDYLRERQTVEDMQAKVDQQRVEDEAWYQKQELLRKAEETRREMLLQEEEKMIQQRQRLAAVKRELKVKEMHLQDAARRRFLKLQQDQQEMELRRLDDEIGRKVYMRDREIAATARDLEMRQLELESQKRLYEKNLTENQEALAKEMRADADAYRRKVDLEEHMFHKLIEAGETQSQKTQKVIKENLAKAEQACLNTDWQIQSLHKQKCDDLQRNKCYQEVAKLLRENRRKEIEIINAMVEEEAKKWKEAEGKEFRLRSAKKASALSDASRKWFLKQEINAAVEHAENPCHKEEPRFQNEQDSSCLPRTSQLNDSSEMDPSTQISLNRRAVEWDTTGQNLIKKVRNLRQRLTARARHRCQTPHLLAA
# T2: Flag-TBC1D31 (in HepG2 cells) (human) (UniProt Q96DN5)
# T2 sequence: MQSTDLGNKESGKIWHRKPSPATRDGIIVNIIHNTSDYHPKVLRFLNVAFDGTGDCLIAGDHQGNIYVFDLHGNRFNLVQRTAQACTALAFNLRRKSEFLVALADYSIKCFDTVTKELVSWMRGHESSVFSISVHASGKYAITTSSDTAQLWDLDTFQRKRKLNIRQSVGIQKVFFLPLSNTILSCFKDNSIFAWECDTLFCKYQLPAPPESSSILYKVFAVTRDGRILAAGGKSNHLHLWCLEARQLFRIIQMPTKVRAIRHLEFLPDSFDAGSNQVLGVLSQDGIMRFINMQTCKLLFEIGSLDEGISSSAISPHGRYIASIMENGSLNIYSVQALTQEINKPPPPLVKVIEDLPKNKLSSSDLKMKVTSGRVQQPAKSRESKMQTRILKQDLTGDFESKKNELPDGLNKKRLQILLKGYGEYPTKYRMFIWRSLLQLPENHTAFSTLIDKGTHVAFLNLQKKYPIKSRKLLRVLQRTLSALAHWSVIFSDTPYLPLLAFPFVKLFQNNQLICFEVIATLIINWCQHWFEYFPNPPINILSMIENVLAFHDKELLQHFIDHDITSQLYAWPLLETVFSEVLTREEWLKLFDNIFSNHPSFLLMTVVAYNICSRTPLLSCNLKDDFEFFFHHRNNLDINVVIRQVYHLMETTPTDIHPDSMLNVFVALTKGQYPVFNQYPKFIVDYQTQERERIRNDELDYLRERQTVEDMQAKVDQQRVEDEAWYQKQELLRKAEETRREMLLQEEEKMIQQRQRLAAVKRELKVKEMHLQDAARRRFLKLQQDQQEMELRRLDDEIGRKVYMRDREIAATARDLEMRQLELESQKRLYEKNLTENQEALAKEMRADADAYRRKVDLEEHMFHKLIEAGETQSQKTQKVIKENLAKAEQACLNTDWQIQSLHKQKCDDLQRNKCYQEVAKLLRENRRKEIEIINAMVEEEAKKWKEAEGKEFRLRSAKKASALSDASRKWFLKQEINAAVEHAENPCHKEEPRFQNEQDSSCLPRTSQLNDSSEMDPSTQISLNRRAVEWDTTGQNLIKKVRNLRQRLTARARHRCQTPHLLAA
# How the values were obtained:
# Flag-TBC1D31 (human) = biological target: T1, Flag-TBC1D31 (human); experiment: co-IP; Flag-TBC1D31 and Myc-tagged Rabs co-expressed in HEK293T (text: HEK293) cells; NETN lysis buffer (100 mM NaCl, 1 mM EDTA, Tris pH 8.0, 0.5% NP-40), agarose A/G beads, 4 °C
# [1] = biological target: T2, Flag-TBC1D31 (in HepG2 cells) (human); experiment: co-IP; HepG2 cells with Flag-TBC1D31 and endogenous Rab22A; IP and IB with anti-mouse Flag and anti-rabbit Rab22A; rabbit or mouse IgG as negative controls; NETN lysis buffer
binding (Flag-TBC1D31 (human)),binding [1],Molecule
no binding,–,Myc-Rab21A (from UniProt Q9UL25 1-225)
no binding,–,Myc-Rab7A (from UniProt P51149 1-207)
no binding,–,Myc-Rab11A (from UniProt P62491 1-216)
no binding,–,Myc-Rab5A (from UniProt P20339 1-215)
binds,–,"Myc-Rab22A (protein, UniProt Q9UL26 1-194) MALRELKVCLLGDTGVGKSSIVWRFVEDSFDPNINPTIGASFMTKTVQYQNELHKFLIWDTAGQERFRALAPMYYRGSAAAIIVYDITKEETFSTLKNWVKELRQHGPPNIVVAIAGNKCDLIDVREVMERDAKDYADSIHAIFVETSAKNAININELFIEISRRIPSTDANLPSGGKGFKLRRQPSEPKRSCC"
–,binds,"endogenous Rab22A (protein, UniProt Q9UL26 1-194) MALRELKVCLLGDTGVGKSSIVWRFVEDSFDPNINPTIGASFMTKTVQYQNELHKFLIWDTAGQERFRALAPMYYRGSAAAIIVYDITKEETFSTLKNWVKELRQHGPPNIVVAIAGNKCDLIDVREVMERDAKDYADSIHAIFVETSAKNAININELFIEISRRIPSTDANLPSGGKGFKLRRQPSEPKRSCC"
